According to PubChem BioAssay (NCATS):
This list was built around the results that the source calls inconclusive (neither active nor inactive); the mix of calls is not that of the screen. Potencies of inconclusive entries are left out as doubtful fits. Activity calls are given as the source filed them. Calls come from the whole dose curve; as a rule, active = well fitted inhibition curve with a large enough effect; inconclusive = small, poorly fitted or top-dose-only effect; inactive = flat fitted curve, though single readings scatter.

molecular target: Aldehyde dehydrogenase, mitochondrial (Homo sapiens) (UniProt P05091); experiment: qHTS for Inhibitors of the Aldehyde Dehydrogenase Family (ALDH2) Primary screen (AID 2061308); conditions: ALDH2 enzyme inhibition qHTS, 1536-well; series mostly up to 56 µM; activity change, negative = inhibition: at the top concentration; note: nearly all actives have a fitted effect of over 55% in size;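 for activity change, negative = inhibition: plate controls were vehicle for no effect and reference inhibitor for full effect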
Potency is the fitted concentration of half-maximal effect; tags give direction and shape of the fitted curve.

| SMILES | Potency | activity change, negative = inhibition |
| --- | --- | --- |
| Cc1ccc(CN(C)c2ccc(N3CCN(C)CC3)cc2)cc1 | active: 10 µM | – |
| COc1ccc([N+](=O)[O-])c(S(=O)(=O)c2ccc(Cl)cc2)n1 | active: 1.78 µM | – |
| O=C1c2ccccc2NC(c2ccc(-c3cccc([N+](=O)[O-])c3)o2)N1O (stereo not given) | active: 10 µM | – |
| Cc1cc(-c2nnc3n2CCCCC3)c(C)n1-c1cccc2ccccc12 | – | inactive: -19.1% |
| CC(=O)Nc1sc2c(c1-c1ccc(N(C)C)cc1)CCNC2 | inconclusive [inhibitor, partial curve] | – |
| N#Cc1cccnc1SC1=NS(=O)(=O)c2ccccc21 | active: 3.16 µM | – |
| COc1ccc(C2Nc3ccccc3C(=O)N2CC(C)(C)C)cc1COc1ccc(NC(C)=O)cc1 (stereo not given) | inconclusive [inhibitor, partial curve] | – |
| O=C(O)c1cnn(-c2nc3cc(OC(F)(F)F)c(Cl)cc3[nH]2)c1 | inconclusive [inhibitor, partial curve, poor fit] | – |
| Cn1c(N2CCCCS2(=O)=O)nc(C(=O)NCc2ccc(F)cc2)c(O)c1=O | inconclusive [inhibitor, partial curve] | – |
| CC(C)(C)OC(=O)N1CCN(c2ccc(NCc3ccc4c(-c5ccc(F)cc5)cc(=O)oc4c3)cc2)CC1 | – | inactive: -6.56% |
| CC(=O)Nc1sc2c(c1-c1cccc(F)c1)CCNC2 | inconclusive [inhibitor, single point] | – |
| O=C(Nc1ncc(Cc2ccc(C(F)(F)F)cc2)s1)c1ccc(-c2ccccc2[N+](=O)[O-])o1 | inconclusive [inhibitor, partial curve] | – |
| CC(=O)Nc1sc2c(c1-c1csc3ccccc13)CCNC2 | inconclusive [inhibitor, partial curve, poor fit] | – |
| Oc1ccc(Oc2ccccc2F)c2cccnc12 | – | inactive: -28.4% |
| CCCCNC(=O)[C@@H]1Cc2ccccc2N1C(=O)[C@@H](N)CC | inconclusive [inhibitor, partial curve, poor fit] | – |
| O=C(Nc1cc(Cc2ccccc2)ccn1)c1ccc(-c2cccc([N+](=O)[O-])c2)o1 | inconclusive [inhibitor, partial curve] | – |
| CCn1cnc2c(Nc3ccc(CC(=O)N=C(N)N)cc3)nc(C#N)nc21 | inconclusive [inhibitor, full curve] | – |
| COc1ccc(C(=O)N(Cc2ccco2)Cc2ccco2)c(O)c1 | inconclusive [inhibitor, full curve] | – |
| Cc1noc(C)c1-c1cccc(-c2nn3c(=O)cc(N4CCNCC4)nc3s2)c1 | inconclusive [inhibitor, full curve, poor fit] | – |
| O=C(O)c1cccc(-n2[nH]c(-c3ccccc3)cc2=O)c1 | inconclusive [inhibitor, full curve, poor fit] | – |
